Source: PubChem BioAssay AID2675 (National Center for Advancing Translational Sciences (NCATS), 2010)
In all, about 280,000 compounds went through this assay and about 100 (0.036%) were called active. The shares of active, inactive and inconclusive entries below differ from those in the screen. Calls follow the shape of the dose curve; as a rule, active = well fitted inhibition curve with a large enough effect in the signal ratio, with a control signal flat (not every such curve was filed as active); inconclusive = small, poorly fitted or top-dose-only effect, or effect the other way, or a change in a side signal; inactive = no such curve, though single readings can be large or run the other way; the % refers to the signal ratio. Potencies beside an inconclusive call are fits to weak or partial responses and may not hold up. A note “side channel” means that the fit belongs to a control or component signal, not to the main read-out.

molecular target: Muscleblind-like protein 1 (Homo sapiens) (UniProt Q9NR56); test: qHTS Assay for Inhibitors of MBNL1-poly(CUG) RNA binding; settings: TR-FRET MBNL1-His/biotin-(CUG)12 binding, 665/545 ratio; activity change, negative = inhibition: at 57.5 µM (top of the series)
UniProt Q9NR56, sequence (Q9NR56 whole entry, looked up): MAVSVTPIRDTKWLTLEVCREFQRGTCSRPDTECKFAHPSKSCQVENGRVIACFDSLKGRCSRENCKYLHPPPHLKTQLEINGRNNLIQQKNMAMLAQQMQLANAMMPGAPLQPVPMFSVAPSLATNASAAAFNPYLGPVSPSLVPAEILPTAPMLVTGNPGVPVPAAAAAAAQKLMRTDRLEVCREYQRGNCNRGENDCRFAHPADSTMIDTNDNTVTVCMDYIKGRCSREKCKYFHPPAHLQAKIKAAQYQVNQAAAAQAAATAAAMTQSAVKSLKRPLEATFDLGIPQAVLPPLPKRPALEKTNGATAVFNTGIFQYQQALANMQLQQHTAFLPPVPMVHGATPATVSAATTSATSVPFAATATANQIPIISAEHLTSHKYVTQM
In short: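 TR-FRET between His-tagged MBNL1 and biotin-(CUG)12 RNA, detected with Tb anti-His antibody (0.055 ng/ul) and streptavidin-XL665 (5 nM), 60 min at room temperature. Compounds titrated 92 nM to 58 uM; 665/545 nm ratio normalized to buffer and complex controls.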
% is scaled to controls: 0 for no effect and ±100 for the full control effect; potency is read from the fitted curve at half-maximal effect; tags tell the direction and shape of the fitted curve or compound fluorescence and quenching.

Row | Compound | Potency | activity change, negative = inhibition
1 | CCn1c(=O)c(C(C)=O)nc2ccccc21 | inconclusive: 20 µM [quencher, side channel, partial curve] | 
2 | Nc1cc(C(=O)c2ccccc2)ccc1N1CCOCC1 | inconclusive: 25.1 µM [quencher, side channel, single point] | 
3 | COC(=O)C(C)N1C(=O)S/C(=C/c2cc(C)n(-c3ccccn3)c2C)C1=O (stereo not drawn) | inconclusive: 15.8 µM [quencher, side channel, partial curve] | 
4 | O=C(N/N=C/c1cc(Br)c(O)c(Br)c1)c1cc2c(ccc3ccccc32)o1 |  | inactive: 7.87%
5 | NC1=NC(=O)/C(=C/c2ccc(-c3ccc(S(N)(=O)=O)cc3)o2)S1 | inconclusive: 2.24 µM [quencher, side channel, full curve] | 
6 | C=CCc1cc(/C=C2/NC(=O)NC2=O)cc(OCC)c1O | inconclusive: 17.8 µM [quencher, side channel, partial curve] | 
7 | CC(=O)N1CCN(C(=O)c2oc3ccccc3c2C)CC1 |  | inactive: -11.5%
8 | Cc1ccc(OCC(=O)N/N=C/c2ccco2)cc1 | inconclusive: 11.2 µM [quencher, side channel, partial curve] | 
9 | N=c1c(C(=O)NCC2CCCO2)cc2c(=O)n3ccccc3nc2n1Cc1cccnc1 (stereo not drawn) | inconclusive: 14.1 µM [quencher, side channel, partial curve] | 
10 | CCN(CC)CCCNC(=O)c1nn(-c2cccc(OC)c2)c(=O)c2ccccc12 |  | inactive: 1.3%
11 | N/C(=N\OC(=O)c1cc(Br)ccc1Cl)c1ccccn1 |  | inactive: 2.09%
12 | COCCNC(=O)C(c1ccc(C)o1)N(C(=O)c1snc(C(N)=O)c1N)c1ccc(C)cc1 (stereo not drawn) | inconclusive: 7.08 µM [quencher, side channel, single point] | 
13 | COC(=O)c1ccccc1NC1=C/C(=N\S(=O)(=O)c2ccc(C(=O)O)cc2)c2ccccc2C1=O | inconclusive: 14.1 µM [quencher, partial curve] | 
14 | Cn1cnc([N+](=O)[O-])c1Sc1ccccc1 | inconclusive: 17.8 µM [quencher, side channel, partial curve] | 
15 | N#CCCN(C1CCCCC1)S(=O)(=O)c1cccc2nsnc12 | inconclusive: 8.91 µM [quencher, side channel, single point] | 
16 | C=CCn1c(N)c(C(=O)Nc2ccccc2OC)sc1=S | inconclusive: 12.6 µM [quencher, side channel, partial curve] | 
17 | O=C(C[n+]1ccc2ccccc2c1)Nc1cc(C(F)(F)F)ccc1Cl | inconclusive: 35.5 µM [quencher, side channel, partial curve] | 
18 | Cc1cc(C(=O)COC(=O)c2cccnc2Cl)c(C)n1CC1CCCO1 (stereo not drawn) |  | inactive: -5.92%
19 | Cc1noc(NS(=O)(=O)c2ccc(NC(=O)c3ccc(N4C(=O)c5ccccc5C4=O)cc3)cc2)c1C | inconclusive: 7.94 µM [quencher, side channel, partial curve] | 

Row | Compound | Potency | activity change, negative = inhibition
20 | O=C(NNS(=O)(=O)c1ccccc1[N+](=O)[O-])c1ccc(O)cc1 | inconclusive: 22.4 µM [quencher, side channel, single point] | 
21 | Oc1[nH]c2ccccc2c1/C=N/N1CCCCC1 | inconclusive: 39.8 µM [quencher, side channel, single point] | 
22 | CCn1c(C)nc2c1C(=O)c1ccccc1C2=O | inconclusive: 7.94 µM [quencher, side channel, partial curve] | 
23 | COC(=O)C(C(=O)Nc1nc2ccccc2s1)C1CCCC1 (stereo not drawn) |  | inactive: -6.08%
24 | COc1cc2c(cc1OC)C1O[C@](c3ccsc3)(C2)Oc2cc(-c3ccccc3)oc(=O)c21 |  | inactive: -8.57% [at 11.5 µM]
25 | O=C1C(C=NCC2CCCO2)=C(O)c2ccccc21 (stereo not drawn) | inconclusive: 22.4 µM [quencher, partial curve] | 
26 | O=[N+]([O-])c1cccc(S(=O)(=O)NCc2ccncc2)c1 | inconclusive: 25.1 µM [quencher, side channel, partial curve] | 
27 | COc1ccc(-c2c(=O)n(OCc3ccccc3[N+](=O)[O-])c3ccccc3[n+]2[O-])c(OC)c1 | inconclusive: 25.1 µM [quencher, side channel, partial curve] | 
28 | O=C1NC(=S)N/C1=C/c1cccn1-c1ccc([N+](=O)[O-])cc1 | inconclusive: 3.16 µM [quencher, partial curve] | 
29 | O=C(CCN1CCCCC1)N/N=C/c1ccc(Br)cc1 | inconclusive: 1.78 µM [quencher, side channel, single point] | 
30 | CCN(CC)c1ccc2c(C)c(CO)c(=O)oc2c1 | inconclusive: 28.2 µM [quencher, side channel, single point] | 
31 | S=c1[nH]c2ccccc2n2cccc12 | inconclusive: 11.2 µM [fluorescent, side channel, partial curve] | 
32 | CCOC(=O)Cc1csc(NC(=O)/C=C/c2ccco2)n1 | inconclusive: 14.1 µM [quencher, side channel, partial curve] | 
33 | CC(=O)c1c(C)[nH]c(C(=O)OCC(=O)Nc2cc(Cl)ccc2[N+](=O)[O-])c1C | inconclusive: 8.91 µM [quencher, side channel, full curve] | 
34 | CC(=O)c1ccc(-c2nnc(CCC(=O)N(C)Cc3c(C)nc4ccccn34)o2)s1 | inconclusive: 20 µM [quencher, side channel, partial curve] | 
35 | NC(=O)C1CCN(C(=O)CSc2nc3ccccc3o2)CC1 | inconclusive: 0.708 µM [quencher, side channel, single point] | 
36 | NCCCCNS(=O)(=O)c1cccc2c(Cl)cccc12 | inconclusive: 15.8 µM [quencher, side channel, partial curve] | 
37 | COc1ccc(/C=C(\NC(=O)c2ccccc2)C(=O)OC[C@@H]2CCC[N+]3(C)CCCCC23)cc1OC (stereo partly drawn) | inconclusive: 15.8 µM [quencher, side channel, partial curve] | 
38 | COc1cccc(N=Nc2c(=O)[nH]n3c(=O)cc(C)[nH]c23)c1 | inconclusive: 25.1 µM [quencher, side channel, partial curve] | 
